Measured values reported in the supplement of paper PMC9174493.
Some of the results follow. Single values of this set are uncertain. Values with irradiation are relative to irradiated vehicle.

Key:
[1] = system: A549-Dual; experiment: NF-kB reporter (SEAP) activity, viability-corrected, relative to vehicle (fold change vs vehicle); higher = more activation of STING-IRF / NF-kB immune response reporter; settings: 10 µM
[2] = system: A549-Dual; experiment: ISRE reporter (Lucia luciferase) activity, viability-corrected, relative to vehicle (fold change vs vehicle); higher = more activation of STING-IRF / NF-kB immune response reporter; settings: 10 µM
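Wherever NF-kB reporter (SEAP) activity, viability-corrected, relative to vehicle is given: viability correction based on the alamar blue assay, with concentrations leaving 10% survival or less dropped.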

Compound | NF-kB reporter ([1]; irradiation: 8 Gy/4 fr) | NF-kB reporter ([1]; irradiation: none) | ISRE reporter ([2]; irradiation: 8 Gy/4 fr) | ISRE reporter ([2]; irradiation: none)
OCC1=CC(O)C2C=COC(OC3OC(CO)C(O)C(O)C3O)C12 (stereo not drawn) [Aucubin] | 0.812 | 0.59 | 0.881 | 0.501
C=CC1(C)CC(OC(=O)CSC(C)(C)CNC(=O)C(N)C(C)C)C2(C)C(C)CCC3(CCC(=O)C32)C(C)C1O.Cl (stereo not drawn) [Valnemulin HCl] | 0.626 | 1.47 | 0.628 | 2
CC(=O)OC1(C(C)=O)CCC2C3C=C(Cl)C4=CC(=O)CCC4(C)C3CCC21C (stereo not drawn) [Chlormadinone acetate] | 0.406 | 0.838 | 0.197 | 0.441
CCCC1CC(C(=O)NC(C(C)Cl)C2OC(SC)C(O)C(O)C2O)N(C)C1.Cl.O (stereo not drawn) [Clindamycin alcoholate] | 0.752 | 0.801 | 0.878 | 0.729
O=C(Nc1c(Cl)cncc1Cl)c1ccc(OC(F)F)c(OCC2CC2)c1 [Roflumilast] | 0.691 | 0.934 | 0.64 | 0.741
CN1CCc2c(c3ccccc3n2Cc2ccccc2)C1.CN1CCc2c(c3ccccc3n2Cc2ccccc2)C1.O=S(=O)(O)c1cccc2c(S(=O)(=O)O)cccc12 [Mebhydrolin napadisylate] | 0.705 | 1.61 | 0.699 | 0.937
CN(C)C1C(O)=C(C(N)=O)C(=O)C2(O)C(O)=C3C(=O)c4c(O)cccc4C(C)(O)C3CC12.Cl (stereo not drawn) [Tetracycline HCl] | 0.728 | 0.874 | 0.499 | 0.736
CC(=O)OCC(=O)C1CCC2C3CCC4=CC(=O)CCC4(C)C3CCC12C (stereo not drawn) [Deoxycorticosterone acetate] | 0.526 | 0.841 | 0.252 | 0.492
COC1C(=O)C2(C)C(OC)CC3OCC3(OC(C)=O)C2C(OC(=O)c2ccccc2)C2(O)CC(OC(=O)C(O)C(NC(=O)OC(C)(C)C)c3ccccc3)C(C)=C1C2(C)C (stereo not drawn) [Cabazitaxel] | 1.9 | 3.75 | 1.26 | 5.08
CCCCC(CC)COC(=O)CC(C(=O)OCC(CC)CCCC)S(=O)(=O)[O-].[Na+] (stereo not drawn) [Docusate Sodium] | 0.861 | 0.965 | 0.874 | 0.87
COc1ccc2c(OC3CC4C(=O)NC5(C(=O)NS(=O)(=O)C6CC6)CC5/C=C\CCCCN(C)C(=O)C4C3)cc(-c3nc(C(C)C)cs3)nc2c1C (stereo not drawn) [Simeprevir] | 0.506 | 1.47 | 0.273 | 0.909
CC(C)(C)NC(=O)NC(C(=O)N1CC2C(C1C(=O)NC(CC1CCC1)C(=O)C(N)=O)C2(C)C)C(C)(C)C (stereo not drawn) [Boceprevir] | 0.685 | 0.958 | 0.71 | 1.1
